Data reported in the supplement of paper PMC10126150.
Sequences with one replicate were seen in a single cluster, so their values are uncertain.

tested on: ATP; assay: switch fluorescence ratio, 500 uM ATP over buffer (Cy3 cluster intensity, sum of 5 cycles each) (fold (ratio)); higher = stronger signal-on switching upon ATP binding; sequences stand for … in TCGTCGGCAGCGTCAGATGTGTATAAGAGACAGTTTTTTTTTTTTTTTTTTTTTTTTT…TC; settings: aptamer strand: ATP DNA aptamer (quencher-CACCTGGGGGAGTATTGCGGAGGAAGG + anchor), 100 nM annealed; ATP concentration: 500 uM; one replicate
How it was run: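 Per cluster, summed Cy3 intensity from the target cycles was divided by that from the buffer cycles to give the fluorescence ratio, then averaged per switch-domain sequence. Clusters outside 100-1000 RFU were excluded. The Cy3-labelled switching-strand clusters, on a modified Illumina MiSeq flow-cell, were annealed to 100 nM quencher-labelled ATP aptamer and imaged in selection buffer, then after 15 min with 500 uM ATP at 22 °C, for five cycles with NaOH stripping and re-annealing between them.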
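Note: ATP exposure 15 min at 22 °C before imaging.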

Sequence	switch fluorescence ratio
ACGCCAAACA	1.15
TCGGCACACA	1.04
TGAATGGTCA	1.02
CCAGTGGCC	1.01
GGCAGCGATG	0.971
CGAATCATCT	0.905
GGGTCCTTAT	0.968
AGCATTTGGA	1.02
ACATAGACCA	1.06
GCGCGCAGAG	1.01
GTGCTTACGG	0.963
AATTTGATCG	1.01
TAACACAGGG	1.07
GGGCAAGATT	1.04
CCGCAGGTGG	1.23
TCGGGAATGC	1.7
TGAGACAATT	0.971
GTATACCTGG	0.98
ATTTCCTGCT	0.989
GCTGCAGCGA	1.01
CCATCCTTGA	0.976
AATTGCTGCA	0.975

Sequence	switch fluorescence ratio
CGAATAGACG	1
GGCGACTCTC	1.04
CCTTTTTTG	1.05
TCCCATATGC	2.09
TTTTAACGAT	1
ACGACTGTTT	1.29
AGGATACTCC	1.27
AGGTAGCTGC	1.04
AGGTGATCAG	0.959
ACGTCTGATG	1.02
ACCGCCAAGG	1.03
CTCACTTAT	1.08
TAACTTACGG	1.46
TTTCTCCCGA	1.42
AAATATCCCC	1.06
GGTGGTTAGG	0.988
CGTCCAGGC	1.16
GACAGGTCAT	1.02
TATGGAGCGG	1.02
GAAGAATTTG	0.977
CACTCGGTCT	1.04
GTAGGTACCA	1.02

Sequence	switch fluorescence ratio
GAGGGATTAT	1.04
GGAAGTAAG	0.967
TCTGGTAG	0.987
CCAGTAGGTT	0.994
CTTAGGGCC	0.975
TGAGAATATA	1.02
TGGATCGGCT	0.983
GTCGTTGTCA	0.982
TATTCACTAC	1.03
CCTTTCATGG	1.03
ATTCCAGGCT	1.04
CTTTTGGGAG	2.31
ATCTGGAGAT	0.981
AAAAGCACCC	1.31
AGTTGTATTG	0.995
CCTTGGGCTC	1.56
GCGGGGGTAA	0.97
AGGTCGGTTT	1.02
CTTCAACGAT	1.04
GCGCCGCTTC	1.03
CCTCAATATT	2.23
AACGTGGGAT	0.923

Sequence	switch fluorescence ratio
GAGCGCCCGA	0.994
GCAATATCTT	1.85
TGGGTCGAGT	1
GGCGGCGAGC	1.02
TAGAGCCGAT	1.01
ACAAATTTAA	1.05
TTAGGAGTCG	0.986
ATCTTCACCG	1.14
GGGGTTCTGT	0.944
GGTCCCCCAG	4.35
AGACCCCTCA	0.996
ACAACTTTAG	0.993
AACGTCCGGC	0.963
GTGTGCTGGG	0.981
AACACAGATA	1.01
CCTTTGATGA	1.05
AGGCAGTCGG	1.01
ATTTCCGTAT	1.02
ATCCTAGGAG	0.992
